Measured values from PubChem BioAssay AID1832 (Broad Institute, 2009).
About 1,100 (0.37%) of roughly 300,000 compounds were called active. The inconclusive results got no clear call from the source; some entries with a clear call stand among them for comparison.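 Rule for the calls: active = inhibition past about -25% in most replicates, and total fluorescence under double the plate's negative control median (limit read from the data); inconclusive = replicates evenly split on the limit, or fluorescence at least double controls; inactive = too little inhibition in most replicates.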

molecular target: Zinc finger protein mex-5 (Caenorhabditis elegans) (UniProt Q9XUB2); assay: MEX-5 zinc finger RNA-binding disruptors – biochemical, C. elegans, fluorescence polarization, MLPCN library, primary screen (AID 1832); conditions: MEX-5/FITC-TCR2 RNA binding, at 10 µM, hits give low values;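 note: 0% = DMSO and -100% = 5 µM competing unlabeled TCR2 RNA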
Sequence of UniProt Q9XUB2 (Q9XUB2 whole entry, looked up): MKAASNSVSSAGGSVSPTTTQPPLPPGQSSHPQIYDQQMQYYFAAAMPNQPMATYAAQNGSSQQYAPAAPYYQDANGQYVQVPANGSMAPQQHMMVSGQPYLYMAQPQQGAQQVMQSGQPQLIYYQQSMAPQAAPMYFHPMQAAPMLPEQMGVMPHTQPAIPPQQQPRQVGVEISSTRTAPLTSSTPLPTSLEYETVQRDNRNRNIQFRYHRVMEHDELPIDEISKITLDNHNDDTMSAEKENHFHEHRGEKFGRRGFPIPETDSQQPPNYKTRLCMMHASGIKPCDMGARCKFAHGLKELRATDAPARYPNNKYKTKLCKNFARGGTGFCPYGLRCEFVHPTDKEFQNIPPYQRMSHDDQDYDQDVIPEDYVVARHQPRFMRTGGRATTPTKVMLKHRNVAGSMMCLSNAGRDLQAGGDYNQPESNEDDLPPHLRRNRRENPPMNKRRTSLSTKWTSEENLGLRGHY

Row | Compound | activity score (negative = inhibition of binding)
1 | COc1ccc(/C=C2\CCCC(C(=O)C(F)(F)F)=C2O)cc1 | inconclusive: -12.5%
2 | CCCCCCCCCCCCCCCCn1cc[n+](C)c1 | inconclusive: -19.6%
3 | COc1cc(OC)c(C(=O)OCC(=O)Nc2cc(C)on2)cc1OC | inactive: 0.296%
4 | O=C(NNC(=O)c1cnccn1)c1cccc([N+](=O)[O-])c1 | active: -60.9%
5 | CC1=NN(C(N)=S)C(=O)C1N=Nc1c(Cl)cc([N+](=O)[O-])cc1Cl (stereo not drawn) | active: -31%
6 | CCCN(CCC)S(=O)(=O)c1ccc(C(=O)OCCN2C(=O)c3cccc4c(N5CCOCC5)ccc(c34)C2=O)cc1 | inconclusive: -51.4% [fluorescent]
7 | O=C1CCN2C=Nc3cccc4ccc1c2c34 | inconclusive: -156% [fluorescent]
8 | COc1ccc(CCNC(=O)c2nn(C)c3c2CS(=O)(=O)c2ccccc2-3)cc1OC | inconclusive: -23%
9 | COCCCNC(=S)N1CCN(C(c2ccccc2)c2ccccc2)CC1 | inactive: -0.0842%
10 | Cc1cc(=O)n2[nH]c(N)c(N=Nc3ccccc3)c2n1 | inconclusive: -23.6%
11 | Cc1ccc(S(=O)(=O)NCC2COc3ccccc3O2)cc1 (stereo not drawn) | inactive: -3.21%
12 | CCn1c(=O)cc(N2CCOCC2)[nH]c1=O | inactive: 0.271%
13 | CCCCCCNC(=O)C(C#N)c1nc2ccccc2nc1N1CCOCC1 (stereo not drawn) | inconclusive: -24.8% [fluorescent]
14 | O=P(Cc1ccccc1)(c1ccccc1)c1ccccc1 | inactive: 0.782%
15 | CCN1CCN(Cc2c(O)ccc3c2O/C(=C\C=C\c2ccccc2)C3=O)CC1 | inconclusive: -8.45% [fluorescent]
16 | COc1ccc2nc(SCC(C)=O)c(C#N)cc2c1 | inconclusive: -13.6%
17 | Cc1ccc(S(=O)(=O)Nc2ccccc2F)cc1C(=O)NNC(=O)c1csc(N2CCOCC2)n1 | inconclusive: -24.4%
18 | CC1=C(C#N)C(=O)N(C2CCS(=O)(=O)C2)C(=O)/C1=C\c1ccc(C)o1 (stereo not drawn) | inconclusive: -93.8% [fluorescent]
19 | CC1CCCN(c2nc3ccccc3nc2C(C#N)S(=O)(=O)c2ccccc2)C1 (stereo not drawn) | inconclusive: -92.1% [fluorescent]
20 | O=C(Nc1ccc(NC(=O)c2ccccc2O)cc1)Nc1ccc(F)cc1F | inactive: -3.07%
21 | CCc1c(C)c2nncn2[nH]c1=O | inactive: 0.736%

Row | Compound | activity score (negative = inhibition of binding)
22 | N#C/C(=C\c1ccc(N2CCOCC2)o1)c1nc2ccccc2[nH]1 | inconclusive: 33.9% [fluorescent]
23 | Cc1cc(C(=O)N/N=C/c2cc(Cl)cc([N+](=O)[O-])c2O)n[nH]1 | inconclusive: -11.5%
24 | O=C1c2cccc3c(O)ccc(c23)C(=O)N1Cc1ccco1 | inconclusive: -110% [fluorescent]
25 | N#CC1=C(N)C2=C(N3CCCCC3)CCCC2C1(C#N)C#N (stereo not drawn) | active: -44%
26 | Cc1[nH][nH]c(=O)c1C(c1ccc(O)c([N+](=O)[O-])c1)c1c(C)[nH][nH]c1=O | active: -48.4%
27 | Cc1oc2cc(OC(=O)c3ccco3)ccc2c(=O)c1-c1nc2ccccc2n1C | inactive: -1.21%
28 | CC[n+]1c(/C=C2\Sc3ccccc3N2C)ccc2cccc(C)c21 | inconclusive: -2.25% [fluorescent]
29 | CC1=C(C#N)C(=O)NC(=O)/C1=C/c1ccc(-c2ccc(S(N)(=O)=O)cc2)o1 | active: -33.2%
30 | Nc1c(/C=C2/C=CC(=O)C(O)=C2)c(=O)nc2sc(CC(=O)N3CCCCC3)nn12 | inconclusive: -13.2%
31 | Cc1cccc(Oc2nc(-c3ccccn3)nc3ccccc23)c1 | inconclusive: -22.7%
32 | CCOC(=O)N1CCN(c2nc3ccccc3nc2C(C#N)C(=O)NCCc2ccccc2)CC1 (stereo not drawn) | inconclusive: -25.7% [fluorescent]
33 | O=C(O)c1cc(-c2ccc(/C=N/Nc3ccc([N+](=O)[O-])cn3)o2)ccc1Cl | active: -71.6%
34 | Cn1ncc2c(NNC(=O)c3ccc(O)cc3)ncnc21 | inconclusive: -24.9%
35 | CCOC(=O)N1CCN(C2=Nc3cccc4cccc2c34)CC1 | inconclusive: -22.1%
36 | CC1Sc2ccc(S(=O)(=O)N3CCC(C(N)=O)CC3)cc2NC1=O (stereo not drawn) | inactive: 1.03%
37 | CCCSc1nnc2nc3c(nn12)c1ccccc1n3C | active: -35.1%
38 | COC(=O)[C@@H]1[C@H]2C[C@H]3c4[nH]c5ccccc5c4CCN3C[C@@H]2CC[C@@H]1O | inconclusive: -22.8%
39 | Fc1ccc(NC(=S)N2CCOCC2)cc1Cl | inconclusive: -17.1%
40 | N#CCCN(CCC#N)C(=O)C1c2ccccc2Oc2ccccc21 | inconclusive: -123% [fluorescent]
41 | CCn1cc(C2=NCCO2)c2ccccc21 | inactive: 5.16%
42 | O=C(NCc1ccccn1)c1ccc(NS(=O)(=O)c2ccccc2)cc1 | inactive: -1.4%

Row | Compound | activity score (negative = inhibition of binding)
43 | O=C(CSc1nnc(NC(=O)c2ccc(F)cc2F)s1)NC1CCCC1 | inactive: 0.0909%
44 | N=C1/C(=C/c2coc3ccccc3c2=O)C(=O)N=C2SC(c3ccco3)=NN12 | inconclusive: -45% [fluorescent]
45 | CCOC(=O)/C(C#N)=C\C=C1C=CN(C)C=C1 | inconclusive: 71.6% [fluorescent]
46 | COC1=CC(=Cc2c(N)n3nc(CC(=O)N4CCOCC4)sc3nc2=O)C=C(OC)C1=O | inconclusive: 73% [fluorescent]
47 | COc1cc(/C=N/Nc2nc(=O)[nH]nc2C)ccc1O | inconclusive: -24.9%
48 | COc1ccc(-n2c(C)cc(/C=C3/SC(=S)N(C)C3=O)c2C)cc1 | inactive: -5.44%
49 | CCN(CC)C1=CC2=CC(=C(C#N)C#N)CCC2CC1 (stereo not drawn) | inconclusive: 9.8% [fluorescent]
50 | O=C(Cc1ccc([N+](=O)[O-])cc1)N1CCN(c2ccc([N+](=O)[O-])cc2)CC1 | inactive: -2.01%
51 | CCOC(=O)NNc1ccc2nonc2c1[N+](=O)[O-] | inconclusive: -23.1%
52 | Nc1c(C(=O)c2ccc(Br)s2)oc2ccccc12 | inconclusive: -22.4%
53 | Cc1cc(C(=O)N2CCCC2C(=O)O)c(C)o1 (stereo not drawn) | inactive: -1.89%
54 | O=C(NCC1CCCO1)C1CCCN(S(=O)(=O)c2cccc(C(F)(F)F)c2)C1 (stereo not drawn) | inactive: 1.23%
55 | Cc1ccc(NC(=O)CSc2nnc(N)s2)cc1S(=O)(=O)N1CCOCC1 | inconclusive: -11.4%
56 | CC(=Nc1ccc(C)cc1C)c1sc2ccccc2c1O | inconclusive: -23.2%
57 | CC(=O)OCCCN(C)CC/C=C1/c2ccccc2CSc2ccccc21 | inactive: 3.17%
58 | Cc1ccc2oc(=O)c(/C=C(\O)CC(C)C)nc2c1 | inconclusive: -23.6%
59 | CN(CC(=O)Nc1cccc(F)c1)C(=O)CCCNC(=O)c1ccc(Cl)cc1 | inactive: -0.237%
60 | CC(C)(C)OC(=O)N1CC=C2C(C#N)=C(N)C(C#N)(C#N)[C@H](c3cccnc3)[C@H]2C1 | active: -28%
61 | N#C/C(=C\c1ccc(N2CCOCC2)o1)C(=O)NCC1CCCO1 (stereo not drawn) | inconclusive: 68.1% [fluorescent]
62 | COc1cc(OC)c(OC)cc1/C=C1\Oc2cc(OS(C)(=O)=O)ccc2C1=O | inconclusive: -25%
63 | Cc1cccc(S(=O)(=O)NCCc2ccccc2)c1 | inactive: 1.49%

Row | Compound | activity score (negative = inhibition of binding)
64 | COCC1CCCN(C(=O)c2ccc3nc(Cc4cccc(Cl)c4)oc3c2)C1 (stereo not drawn) | inactive: 0.792%
65 | COc1ccc(-c2cc(C(F)(F)F)c3c(N)c(C(=O)NCCSC)sc3n2)cc1 | inconclusive: -50.3% [fluorescent]
66 | CCn1nc(-c2ccccc2)c2nc3ccccc3nc21 | inconclusive: -85.5% [fluorescent]
67 | C=CCn1cc(/C=C/c2cc[n+](C)cc2)c2ccccc21 | inconclusive: 29.9% [fluorescent]
68 | O=C1c2ccccc2C(=O)c2[nH]cnc21 | inconclusive: -24.1%
69 | O=C(N=c1ccn(-c2nc3ccccc3nc2NS(=O)(=O)c2ccccc2)cc1)c1ccccc1Cl | inconclusive: -19.7%
70 | COC(=O)C1=C(C)N(Cc2ccccc2)C(=NCC(C)C)N[C@H]1c1ccccc1 | inconclusive: -25.3%
71 | COc1ccc2c(c1)N(C)/C(=C/c1cccc[n+]1C)S2 | inconclusive: 37.7% [fluorescent]
72 | COCCN1CCC(CNCc2c(C(=O)N3CCCCC3)nc3c(C)cccn23)C1 (stereo not drawn) | active: -48.9%
73 | COc1ccccc1/C=C/C=C1\Oc2c(ccc(O)c2CN(C)C)C1=O | inconclusive: -17.1% [fluorescent]
74 | N#CC(C#N)=C1C=C2C=C(N3CCOCC3)CCC2CC1 (stereo not drawn) | inconclusive: 12.3% [fluorescent]
75 | CCOc1c(O)ccc(/C=C2\SC(=S)NC2=O)c1[N+](=O)[O-] | inconclusive: -22.3%
76 | O=[N+]([O-])c1ccc(/C([O-])=C(/C(=S)NCc2ccco2)[n+]2ccccc2)cc1 | inactive: -1.52%
77 | CC1=CC(=C2N=C(c3ccccc3)OC2=O)C=C(C)O1 | active: -35%
78 | COc1ccccc1N1CC(C(=O)Nc2nnc(SCC(=O)NC(C)C)s2)CC1=O (stereo not drawn) | inconclusive: -16%
79 | CCCCCSc1nnc2c(n1)OC(C)N(C(C)=O)c1ccccc1-2 (stereo not drawn) | inactive: -3.52%
80 | CCc1ccc2nc(SCC(=O)Nc3ccccc3N3CCOCC3)c(C#N)cc2c1 | inactive: 0.28%
81 | Cc1ccccc1C(=O)N=c1ccn(-c2nc3ccccc3nc2NS(=O)(=O)c2ccc(F)cc2)cc1 | inconclusive: -186% [fluorescent]
82 | COC(=O)C[n+]1cccc2ccccc21 | inconclusive: -91% [fluorescent]
83 | Cc1cc(-c2ccccc2)c2c3c(c(-c4ccccc4)n2n1)c(=O)n(C)c(=O)n3C | inconclusive: -89.8% [fluorescent]
